The values that follow come from PubChem BioAssay AID485344 (National Center for Advancing Translational Sciences (NCATS), 2010).

Values joined by “and” are separate entries in the source; they are usually repeats but may differ in a detail not shown here. Identical values can stand only once. Out of some 340,000 compounds screened, about 6,900 (2%) were called active. No stated cut-off is given here; in the data, active means inhibition above about 30%; inactive means below that, where a call was filed. This is a selection; strong and weak results do not stand in their true shares. Entries without a call were filed so in the source.

UniProt P14416, sequence (P14416 whole entry, looked up): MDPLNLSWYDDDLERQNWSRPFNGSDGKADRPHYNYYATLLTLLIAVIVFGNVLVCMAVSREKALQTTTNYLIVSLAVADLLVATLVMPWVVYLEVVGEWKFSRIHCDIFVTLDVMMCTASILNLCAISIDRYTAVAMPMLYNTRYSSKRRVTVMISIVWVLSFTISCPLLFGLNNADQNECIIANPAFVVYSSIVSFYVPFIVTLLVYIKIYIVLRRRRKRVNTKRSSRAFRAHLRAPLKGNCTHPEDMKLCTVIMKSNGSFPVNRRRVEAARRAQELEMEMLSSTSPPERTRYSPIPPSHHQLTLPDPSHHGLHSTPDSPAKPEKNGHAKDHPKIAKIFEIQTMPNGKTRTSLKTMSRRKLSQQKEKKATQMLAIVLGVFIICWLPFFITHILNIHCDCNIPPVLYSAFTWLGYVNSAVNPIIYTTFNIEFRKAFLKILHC

For this experiment, the target named is D(2) dopamine receptor (Homo sapiens) (UniProt P14416). In words: HTS Assay for Allosteric Antagonists of the Human D2 Dopamine Receptor: Primary Screen for Antagonists. Further: 0% is about no effect. Particulars: HEK293 TREx D2 cells, calcium flux, dopamine EC80; at 10 µM; stronger effect = higher value. In outline:
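Dopamine at EC80 is the agonist stimulus; test compounds precede it by 180 s. Calcium flux read kinetically in a force-coupled, inducible HEK293 T-REx D2 cell line.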
`CN(Cc1ccc(F)cc1)S(=O)(=O)c1nnc(NC(=O)c2ccccc2)s1`: the inhibition – broadly, the relative decrease from the control value, in per cent – is -12%.
Next, `CCCNC(=O)C1CCC(CNS(=O)(=O)c2ccc3c(c2)CC(C)N3C(C)=O)CC1` (stereo not given): 14% and active: 40.5%; `Cc1ccc2oc(=O)n(Cc3ccccc3Cl)c2c1`: 0.642%.
Next, `Cc1ccc2oc(-c3cc(NC(=O)c4oc5ccccc5c4C)ccc3Cl)nc2c1`: 4.56%.
The result for `C[C@H]1[C@H]2c3nc4ccccc4n3C[C@H]1ON2C1CCCCC1` reads active: 31%; that for `CCNC(=S)NC1CC2CCC(C1)N2Cc1ccccc1` (stereo not given), active: 57%.
In the case of `COc1ccc(C2Oc3nc(SC)nnc3-c3ccccc3N2C(C)=O)cc1` (stereo not given), the inhibition was determined as 12.2%.
Next, `COCCCn1c(=O)c2sccc2n2c(CCCC(=O)NCc3ccc(F)cc3)nnc12`: 25.5%; `COc1ccc(NC(=O)C2CCN(c3cnccn3)CC2)cc1Cl`: -5.3%.
The result for `Cc1ccc2[nH]c3c(=O)n(CC(=O)NCCc4ccc(Cl)cc4)ncc3c2c1` reads -9.52%; that for `Cc1cn2c(=O)c(S(=O)(=O)NCc3ccccc3Cl)c(C)nc2s1`, 6.38%; that for `Cc1cc(C)n(CCc2nc3c4ccccc4nc(N4CCN(c5ccc(F)cc5)CC4)n3n2)n1`, 3.52%.
For `COc1ccc(-c2ccc(CCC(=O)O)n2-c2ccc(Cl)cc2C)cc1`, the inhibition was -18.8%.
Next, `CCN(C(=O)CSc1nc2ccccc2n1CC(=O)Nc1ccc(F)cc1F)c1ccccc1`: 2.96%; `O[C@@H]1CN(Cc2ccc(-n3cccn3)cc2)CC[C@H]1N1CCN(c2ccccc2F)CC1`: active: 38.5%.
Next, `CCN(C(=O)CSc1nc2n[nH]c(C)c2c(=N)n1-c1cccc(OC)c1)c1cccc(C)c1`: -1.45%; `CCOC(=O)c1cccc(NC(=O)CCc2c(C)nn(-c3ccc(N4CCOCC4)nn3)c2C)c1`: 3.29%; `COc1ccc(OC)c(NC(=O)c2cc(=O)c3c(C)cc(C)cc3o2)c1`: -6.49%.
`CCOC(=O)c1c(NC(=O)c2cc(Cl)ccc2Cl)sc2c1CCCC2`: the inhibition is -9.85%.
The result for `Cc1ccc(CNc2cc(C)nc3nc(-c4cccc(C)c4)nn23)cc1` reads -9.96%; that for `Cc1ccc(CNc2nccn(-c3cc(C)cc(C)c3)c2=O)cc1`, 12.6%; that for `CN(C(=O)CSc1nc2ccc(NC(=O)COc3ccccc3)cc2s1)c1ccccc1`, 4.14%.
For `CCC(C)NC(=O)c1sc2ncccc2c1-n1c(C)ccc1C` (stereo not given), the inhibition is -9.3%.
Next, `CCOC(=O)c1ccc2[nH]c(CSc3nnc(-c4cccc(F)c4)n3C)cc(=O)c2c1`: 1.97%; `Cc1cccc(NC(=O)COc2cccc3c(=O)n(C)ccc23)c1C`: -23.1%; `CCOc1cc(C2c3c(oc4ccccc4c3=O)C(=O)N2c2ccccn2)ccc1O` (stereo not given): 8.13%.
The result for `Cc1ccc(C)c(-c2[nH]c3c(c2-c2c(-n4cccc4)n(C)c(=O)n(C)c2=O)c(=O)n(C)c(=O)n3C)c1` reads -8.71%.
For the molecule `Cc1ccc(-n2nc(C(=O)N3CCN(c4cccc(C(F)(F)F)c4)CC3)c3c4ccccc4n(C)c3c2=O)cc1`, the inhibition is -5.34%.
With `CC(C)CN(CCNC(=O)c1cn(C)c2ccc(S(=O)(=O)N3CCCC3)cc2c1=O)CC(C)C`, the inhibition was -3.9%.
Next, `CCCN(C(=O)CCNC(=O)Cn1cnc2ccccc2c1=O)c1cccc(C)c1`: 5.59%; `Cc1nn(-c2ccc(N3CCCCC3)nn2)c(C)c1CCC(=O)NCc1ccc(Cl)cc1`: -0.628%; `CCOC(=O)c1c(-c2ccccc2)oc2ccc(N(C(C)=O)S(=O)(=O)c3ccc(C)cc3)cc12`: -3.11%.
As to `CCc1ccccc1NC(=O)Cn1cc2c(n1)CCC(C)C2` (stereo not given), the inhibition amounted to 4.01%.
The result for `CCC(=O)N1CCc2cc(Br)cc(S(=O)(=O)CCC(=O)NCCc3ccccc3)c21` reads -7.84%; that for `O=[N+]([O-])c1ccc(/C=N/NS(=O)(=O)c2ccc(Cl)cc2)o1`, active: 45.4%.
The result for `Cc1cccc(NS(=O)(=O)c2ccc(NC(=O)N3CCCC3)cc2)c1` reads 8.09%; that for `CCOC(=O)c1cc(C)n(CC2CCC(C(=O)Nc3ccc(C(=O)OC)cc3)CC2)c1C` (stereo not given), -5.11%.
Next, `CS(=O)(=O)N1CCN(c2ccc(NC(=S)NC(=O)c3ccccc3[N+](=O)[O-])cc2)CC1`: active: 32.9%; `Cc1ccccc1CNC(=O)Nc1ccc2c(c1)N(C)C(=O)c1ccccc1S2`: -23.1%.
Take `COc1ccc(C2CC(=O)N(Cc3ccccc3)c3c2c(C)nn3-c2nc(C)cc(C)n2)c(OC)c1` (stereo not given): the inhibition is -7.94%.
The result for `CCOC(=O)c1c(NC(=O)c2ccc(OC)c(OC)c2)sc2c1CCCCC2` reads -3.42%; that for `O=C(CCOc1ccccc1)N(Cc1cccnc1)c1nc2ccc(F)cc2s1`, -9.57%.
The result for `O=C(Nc1ccc2oc(-c3ccc(Cl)cc3)nc2c1)c1ccc2ccccc2c1` reads 0.0957%.
Next, `CCN(CC)c1cc(C)c2cc(NC(=O)c3ccc(F)cc3Cl)ccc2n1`: -4.13%.
For `Oc1cccc(Nc2nc(N3CCOCC3)nc(N3CCOCC3)n2)c1`, the inhibition is active: 36%.
The result for `CCOc1ccccc1NC(c1nnc(-c2ccccc2)o1)c1ccc(F)cc1Cl` (stereo not given) reads -6.8%; that for `Cn1c(=O)oc2cc(S(=O)(=O)N3CCC(C(=O)N4CCN(c5ccc(Cl)cc5)CC4)CC3)ccc21`, -21.7%.
Next, `CCOc1ccc(CNC(=O)c2ccc3c(c2)nc2n3CCC(C)C2)cc1OC` (stereo not given): -2.85%; `CCCCSCCCNC(=O)C1CCC(CNS(=O)(=O)c2c(C)cc(C)cc2C)CC1` (stereo not given): 8.5%; `COc1cccc(C(=O)NC2CC(=O)N(c3ccc4c(c3)OCCO4)C2)c1OC` (stereo not given): 26.1%.
The result for `CC(=O)c1ccc(NC(=O)CCc2c(C)nn(-c3ccc(N4CCCCC4)nn3)c2C)cc1` reads 0.908%; that for `Cc1csc2nc(CCNS(=O)(=O)c3ccc(F)cc3)cn12`, -16.7%; that for `COc1ccc(CNc2ncnc3c2cnn3-c2ccc(C)c(C)c2)cc1`, 9.92%.
Regarding `COc1ccc(CN2C(=O)c3oc4ccccc4c(=O)c3C2c2ccc(O)c(OC)c2)cc1` (stereo not given), the inhibition stood at 9.79%.
Next, `CCc1ccc(-n2nc(C)c3c(C)cc(=O)n(CC(=O)Nc4ccccc4C(=O)OC)c32)cc1`: -2.07%; `CCCCOc1ccc(C(=O)N/C(=C\c2ccc(Br)cc2)C(=O)NC2CCCCC2)cc1`: -3.91%.
Next, `CSCCC(NS(=O)(=O)c1ccc2c(c1)oc(=O)n2C)C(=O)N1CCN(c2ccc(F)cc2)CC1` (stereo not given): 19.6%; `O=C(Nc1cccc(F)c1)C1CCN(c2nc3ccccc3[nH]2)CC1`: 11%.
Next, `Cc1cccc(-n2ccnc2SCC(=O)Nc2ccc3c(c2)OCO3)c1`: -19.7%.
As to `COc1cccc(C(=O)N2CCCC(CCC(=O)NCc3ccc(F)c(F)c3)C2)c1` (stereo not given), the inhibition is active: 34.4%.
Next, `Cc1nc2c3ccccc3nc(NNC(=O)CCC(=O)N3CCN(c4cccc(C(F)(F)F)c4)CC3)n2n1`: -17.7%; `CCc1cccc(NC(=O)CCS(=O)(=O)c2ccc3nc(C)sc3c2)c1`: 7.03%; `Cc1ccc([N+](=O)[O-])cc1NC(=O)CN(C1CCCCC1)S(=O)(=O)c1ccc(Cl)cc1`: active: 52.7%.
The result for `O=C(CC1SC(N2CCOCC2)=NC1=O)Nc1cc([N+](=O)[O-])ccc1Cl` (stereo not given) reads active: 54.4%; that for `CCCCCCCC(=O)N/N=C(\C)c1ccc(O)cc1O`, active: 71.8%.
Next, `O=C(CSc1nc2c([nH]c3ccccc32)c(=O)n1-c1ccccc1)N1CCCCCC1`: -13.5%; `CC1CCc2c(sc(NC(=O)COc3ccccc3C(C)(C)C)c2C#N)C1` (stereo not given): -1.46%.
Regarding `Cc1ccc(NC(=O)Cn2c(SCc3ccc(F)cc3)nc3cccnc32)cc1F`, the inhibition is -15.1%.
Consider `O=C(O)c1ccc(NC(=O)c2cc3ccccc3o2)cc1`, for which the inhibition worked out at 5.6%.
Next, `O=c1c2ccccc2[nH]c(=S)n1CCCN1CCN(c2ccccc2F)CC1`: active: 80.8%.
As to `COc1ccc(C(=O)NCC(c2cccnc2)N2CCc3ccccc32)cc1OC` (stereo not given), the inhibition was -10.1%.
The result for `Cc1cccc(CNC(=O)c2ccc(NC(=O)N3CCSc4ccccc43)cc2)c1` reads 11.9%; that for `O=C1c2cc3ccccc3c(-c3ccccc3)c2C(=O)N1c1ccccn1`, active: 46.5%.
The result for `Cc1oc2c(c(C)cc3oc(=O)c(CC(=O)NCc4ccccc4)c(C)c32)c1C` reads 6.41%.
The result for `CCOC(=O)c1cc(-c2ccccc2)n(-c2cccc(C(=O)Nc3cccc(C(C)=O)c3)c2)c1C` reads 5.42%.
`COc1cccc(N2CCN(C(=O)CN3C(=O)COc4ccc(S(=O)(=O)N5CCC(C)CC5)cc43)CC2)c1`: the inhibition came to 19.1%.
The result for `Cc1c(Cl)cccc1NC(=O)Cn1cc2c(n1)CCCC2` reads -2.1%; that for `COc1ccc(C)cc1-n1nnc(C(=O)Nc2cccc(SC)c2)c1C`, 13.1%.
The result for `CNC(=O)c1c(NC(=O)c2ccc(S(=O)(=O)N3CCCCC3C)cc2)sc2c1CCC2` (stereo not given) reads -11.2%.
The result for `Cc1ccc(Nc2c(-c3cccnc3)nc3ccc(Br)cn23)cc1` reads 2.15%; that for `COc1ccc(-c2nnc(SCC(=O)N(C)Cc3ccccc3)o2)cc1OC`, 13.5%; that for `O=S(=O)(Nc1cccc(-c2ccc(N3CCCC3)nn2)c1)c1ccc(F)c(C(F)(F)F)c1`, 9.23%.
In the case of `Cc1ccc(NC(=O)Cn2cc(S(=O)(=O)N3CCC(C)CC3)c3ccccc3c2=O)c(Br)c1`, the inhibition came out at 10.5%.
The result for `Cc1cccc(Oc2ccc3c(c2)Oc2ccccc2NC3=O)c1` reads -0.286%; that for `CCCCN(CCCNC(=O)c1c(C)oc2nc[nH]c(=O)c12)Cc1ccccc1`, -12.8%; that for `COc1ccc(CNC(=O)c2cnn(-c3ccc(F)cc3)c2-n2cccc2)cc1`, 13.4%.
Next, `O=C(Nc1ccc(Cl)cc1)N1CCC(c2ccccc2)C1` (stereo not given): 14.2%.
Next, `CCCN(C(=O)Cn1ncc2c([nH]c3ccc(C)cc32)c1=O)c1ccccc1C`: 2.44%.
In the case of `CCC(C)NC(=O)CN1C(=O)COc2ccc(S(=O)(=O)N3CCOCC3)cc21` (stereo not given), the inhibition is 23.6% and active: 43.6%.
Consider `CCOc1ccccc1NC(=O)c1c(NCc2sccc2C)sc2c1CCC(C)C2` (stereo not given), for which the inhibition was -27.9%.
Next, `COc1cccc(N2CC(NC(=O)/C=C\c3ccc(OC)c(OC)c3)CC2=O)c1` (stereo not given): -4.39%.
Next, `Cc1cc(-c2ccc(S(=O)(=O)Nc3ccc(Cl)cc3C)cc2)on1`: 3.22%.
Take `CCOC(=O)c1cccc2c1N[C@@H](c1ccc(F)cc1)[C@H]1CC=C[C@@H]21`: the inhibition was -2.12%.
With `Cc1ccc(CCNC(=O)c2ccc3c(=O)n(-c4ccccc4)c(=O)[nH]c3c2)cc1`, the inhibition is -5.05%.
Next, `CCCCC1CCC(C(=O)N2CC(=O)Nc3ccc(Cl)cc3C2c2ccc(F)cc2)CC1` (stereo not given): -12.5%.
